Measurements reported in the supplement of paper PMC7826260.
The list shows a part of the results. Cleavage of a single-stranded DNA pool by Rep nickase domains was read by sequencing for 1 h at 37 °C with 3 µM enzyme; only the middle of the 90-letter strands is printed. The score is log2 (uncut reads / reads without enzyme); more negative means more cut, near 0 not cut, and no call is made. Because reads are shares of a total, they shift together; uncut strands gain when others are lost, and binding without cutting may add a little.

Columns and labels:
Assay in all cases: uncleaved DNA left, log2 of reads against the no-enzyme library (log2 ratio); higher = less cleavage (more negative = more Rep cleavage of the k-mer); sequences stand for … in CTCGTCCG…ACCGGAGA
[1] = tested on: T1, Rep nickase domain of Muscovy duck circovirus
T1 sequence (residues 1-111, tag not shown): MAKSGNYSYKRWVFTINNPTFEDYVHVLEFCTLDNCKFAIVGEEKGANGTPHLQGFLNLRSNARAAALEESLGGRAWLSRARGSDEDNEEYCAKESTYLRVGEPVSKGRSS
Procedure: (§1)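 A pool of 90-nt single-stranded DNAs with seven random bases just before the constant AC of the nick site (name = the seven bases) was cut by 3 µM recombinant His6-SUMO-tagged Rep nickase domain (300 nM DNA, 50 mM HEPES pH 8.0, 50 mM NaCl, 1 mM MnCl2, 1 h, 37 °C, three replicates). Uncut DNA was amplified and sequenced.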

[2] = tested on: T2, Rep nickase domain of banana bunchy top virus
T2 sequence (residues 1-94, tag not shown): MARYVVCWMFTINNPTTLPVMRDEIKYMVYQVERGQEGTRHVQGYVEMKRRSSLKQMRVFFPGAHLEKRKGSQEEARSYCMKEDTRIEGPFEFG
Procedure: as §1

[3] = tested on: T3, Rep nickase domain of cabbage leaf curl virus
T3 sequence (residues 1-116, tag not shown): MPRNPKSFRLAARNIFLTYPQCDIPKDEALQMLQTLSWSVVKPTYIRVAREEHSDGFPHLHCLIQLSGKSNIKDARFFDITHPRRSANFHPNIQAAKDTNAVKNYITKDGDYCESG
Procedure: as §1

[4] = tested on: T4, Rep nickase domain of chickpea chlorotic dwarf virus
T4 sequence (residues 1-124, tag not shown): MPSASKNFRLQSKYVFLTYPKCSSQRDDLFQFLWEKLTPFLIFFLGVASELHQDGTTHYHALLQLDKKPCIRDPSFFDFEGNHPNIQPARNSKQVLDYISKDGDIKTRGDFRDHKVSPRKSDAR
Procedure: as §1

[5] = tested on: T5, Rep nickase domain of faba bean necrotic yellows virus
T5 sequence (residues 1-98, tag not shown): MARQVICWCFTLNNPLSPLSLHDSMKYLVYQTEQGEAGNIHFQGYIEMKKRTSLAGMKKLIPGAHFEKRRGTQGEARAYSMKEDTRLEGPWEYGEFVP
Procedure: as §1

[6] = tested on: T6, Rep nickase domain of maize striate mosaic virus
T6 sequence (residues 1-117, tag not shown): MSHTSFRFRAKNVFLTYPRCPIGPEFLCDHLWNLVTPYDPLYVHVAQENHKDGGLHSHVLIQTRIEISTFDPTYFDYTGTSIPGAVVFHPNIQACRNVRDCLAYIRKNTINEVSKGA
Procedure: as §1

[7] = tested on: T7, Rep nickase domain of porcine circovirus 2
T7 sequence (residues 2-116, tag not shown): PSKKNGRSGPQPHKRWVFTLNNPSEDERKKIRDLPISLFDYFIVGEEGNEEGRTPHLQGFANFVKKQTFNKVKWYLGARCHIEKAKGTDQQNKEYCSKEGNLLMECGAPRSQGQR
Procedure: as §1

[8] = tested on: T8, Rep nickase domain of tomato golden mosaic virus
T8 sequence (residues 1-124, tag not shown): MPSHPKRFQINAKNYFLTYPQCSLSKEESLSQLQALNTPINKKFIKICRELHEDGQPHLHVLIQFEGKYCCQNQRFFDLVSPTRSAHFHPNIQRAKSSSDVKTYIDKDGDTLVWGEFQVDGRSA
Procedure: as §1

[9] = tested on: T9, Rep nickase domain of tomato yellow leaf curl virus
T9 sequence (residues 1-136, tag not shown): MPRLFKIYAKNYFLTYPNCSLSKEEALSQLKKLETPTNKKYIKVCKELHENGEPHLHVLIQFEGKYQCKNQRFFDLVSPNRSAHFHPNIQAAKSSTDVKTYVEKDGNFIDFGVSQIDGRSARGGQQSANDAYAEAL
Procedure: as §1

[10] = tested on: T10, Rep nickase domain of wheat dwarf virus
T10 sequence (residues 1-137, tag not shown): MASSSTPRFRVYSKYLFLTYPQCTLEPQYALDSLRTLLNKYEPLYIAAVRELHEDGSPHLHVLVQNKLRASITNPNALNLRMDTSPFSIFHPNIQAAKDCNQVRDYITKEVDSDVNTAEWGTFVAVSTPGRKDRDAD
Procedure: as §1

Sequence	uncleaved DNA left (log2) [1]	uncleaved DNA left (log2) [2]	uncleaved DNA left (log2) [3]	uncleaved DNA left (log2) [4]	uncleaved DNA left (log2) [5]	uncleaved DNA left (log2) [6]	uncleaved DNA left (log2) [7]	uncleaved DNA left (log2) [8]	uncleaved DNA left (log2) [9]	uncleaved DNA left (log2) [10]
CACAGGT	-0.0339	-0.00172	0.297	0.865	-0.0348	0.946	0.00917	-0.00283	0.0344	0.00597
GCGTCCT	-0.132	-0.16	0.0254	-0.551	0.0312	0.421	-1.59	-0.0235	-0.0253	0.135
GCAACCC	-0.202	0.0869	0.0471	-0.246	-0.123	-0.0901	-1.25	-0.0417	-0.0697	0.0504
GAACAAG	0.123	0.132	-0.393	-0.377	0.156	-0.877	0.243	0.0628	0.147	0.125
TAAAGTT	-0.129	-0.239	-4.29	-3.4	0.0844	-3.04	-2.98	-3.53	-0.11	-3.79
AATCTTT	-0.13	-0.18	-0.797	-2.87	0.0793	-0.628	-3.19	0.028	0.0413	-0.0959
GACATCT	0.0452	0.0253	0.549	-0.405	0.0124	1.46	-0.184	-0.0167	0.0298	0.0843
AACCCAG	-0.0678	0.139	-0.558	-0.542	0.0539	-0.936	-0.402	0.141	0.122	0.0596
ATTACAA	-0.0609	-0.0417	-0.114	-1.72	-0.0321	-0.636	-0.132	-0.0227	-0.0175	0.0674
TGTCTTA	-0.0875	-0.203	0.119	-0.21	-0.0993	0.627	-0.181	0.0313	-0.0209	-0.0185
GACTAAC	-0.0501	-0.0279	-0.016	0.0643	0.0256	0.46	-0.142	0.00479	-0.000877	0.0932
CACGGGC	0.0794	0.0387	0.0702	0.251	-0.0831	-0.146	0.0521	0.00508	0.0139	-0.0266
ACGTATT	-3.33	-3.06	-1.07	-2.91	-3.15	-0.484	-3.82	-0.263	-0.0555	-0.758
CGGGATG	0.0321	0.0307	0.231	0.874	0.0084	1.12	0.0887	0.0358	-0.0938	-0.0668
TCTGGTT	0.0312	-0.16	0.0633	-0.308	-0.218	1	-0.236	-0.0347	-0.0567	-0.142
CGAATCG	-0.136	-0.0252	-0.729	-0.634	-0.016	-1.24	0.0675	-0.105	-0.125	-0.138
ATCGTCT	-0.0668	-0.00953	-0.155	-1.84	0.0373	-0.642	-0.115	-0.103	-0.0764	-0.102
CCCTTTA	-0.233	-0.176	-0.266	-1.51	-0.0678	-0.817	-0.26	-0.143	-0.204	-0.393
TCGTTGA	0.137	-0.0469	-0.113	-0.349	0.0418	-0.73	0.0619	0.0293	0.0297	0.0442
CGGACTT	0.119	-0.00664	0.662	1.68	-0.121	2.12	0.0864	-0.231	-0.0776	0.168
TACCCTC	-0.0714	-0.0869	0.012	-1.44	-0.0099	-0.25	-0.97	-0.0776	-0.0861	-0.111
ATCCTTC	0.0406	0.0178	-0.0129	-0.265	0.223	-0.723	0.0837	-0.167	-0.0291	-0.0911
CTCCGCG	-0.0288	0.0304	-0.687	-0.0613	-0.0503	-0.803	0.0657	-0.106	-0.00788	-0.149
CCCTCAG	-0.17	-0.191	-0.691	-0.565	-0.0808	-1.08	0.0564	-0.0894	-0.111	-0.161
GTTACTC	-0.0596	0.0895	0.343	0.528	-0.107	1.51	-0.0218	-0.0849	0.00608	0.044
TTTTCTC	-0.476	-0.141	0.05	-0.39	-0.0566	-0.487	-0.217	-0.127	-0.00145	-0.0861
TGTGGGC	0.0281	0.0436	0.536	0.928	0.0707	1.06	0.16	0.0695	0.0438	0.0633
GTCAACA	-0.00599	0.144	0.395	0.597	0.0719	1.72	0.0488	0.0454	0.066	0.0597
GGAGTTA	-0.00219	0.0485	0.484	1.14	-0.0547	1.83	0.0405	0.0588	0.0388	0.0856
ACGATAC	0.0293	0.0359	-0.101	-0.369	0.109	-0.56	0.188	0.14	-0.046	-0.0588
